Experimental data reported in PubChem BioAssay AID588591 (National Center for Advancing Translational Sciences (NCATS), 2011).
The campaign covered roughly 390,000 compounds. About 4,700 (1.2%) were called active. The shares of active, inactive and inconclusive entries below differ from those in the screen. The call rests on the fitted dose curve; in most records, active means well fitted inhibition curve with a large enough effect; inconclusive means small, poorly fitted or top-dose-only effect, or another doubt; inactive means no such curve, though single readings can be large or run the other way. A potency beside an inconclusive call is a rough fit, not a confirmed value.

These molecules were tested against DNA polymerase eta (Homo sapiens) (UniProt Q9Y253) (assay: qHTS for Inhibitors of Polymerase Eta). Conditions: recombinant Pol eta, fluorescent DNA replication assay; series mostly up to 114 µM.
UniProt Q9Y253, sequence (Q9Y253 whole entry, looked up): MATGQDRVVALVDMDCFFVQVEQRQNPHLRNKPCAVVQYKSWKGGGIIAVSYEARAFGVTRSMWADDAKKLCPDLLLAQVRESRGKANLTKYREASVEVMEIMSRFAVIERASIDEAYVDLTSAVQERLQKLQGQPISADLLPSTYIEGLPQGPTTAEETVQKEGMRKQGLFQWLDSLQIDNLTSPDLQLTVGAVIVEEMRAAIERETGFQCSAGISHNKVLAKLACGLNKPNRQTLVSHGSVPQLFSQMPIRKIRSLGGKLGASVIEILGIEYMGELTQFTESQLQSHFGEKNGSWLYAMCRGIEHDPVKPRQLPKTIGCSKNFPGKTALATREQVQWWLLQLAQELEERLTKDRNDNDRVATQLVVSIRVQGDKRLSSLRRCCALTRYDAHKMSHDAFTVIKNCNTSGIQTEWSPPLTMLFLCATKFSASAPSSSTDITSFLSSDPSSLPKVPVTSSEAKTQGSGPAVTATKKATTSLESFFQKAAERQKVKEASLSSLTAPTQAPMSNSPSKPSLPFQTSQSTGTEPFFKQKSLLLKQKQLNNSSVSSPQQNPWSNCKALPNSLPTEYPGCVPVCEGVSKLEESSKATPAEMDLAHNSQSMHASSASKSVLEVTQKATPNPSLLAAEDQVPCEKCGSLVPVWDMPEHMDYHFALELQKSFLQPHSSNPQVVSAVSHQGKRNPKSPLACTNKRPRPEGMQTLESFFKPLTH
Summary of the method: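 Pol eta (10 nM) was preincubated with compounds for 15 min at room temperature, after which fluorescent replication substrate (50 nM final) was added to start the reaction. Fluorescence was read kinetically at 0 and 10 min.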
Potency means the concentration at half of the fitted maximal effect; tags describe the fitted curve by direction and shape.

Q: Which Potency does the source give for COc1ccc(C2CC(c3cccs3)=NN2C(=O)CSc2nc(=O)n3ccc(C)cc3n2)cc1 (configuration not stated) here?
A: Its Potency is inconclusive: 8.91 µM [inhibitor, partial curve].

Q: With CCc1ccc(OCC(=O)NNC(=O)Cc2cccs2)cc1 as the molecule, how does the Potency read?
A: The Potency was inconclusive: 79.4 µM [inhibitor, single point].

Q: With Cc1ccc(S(=O)(=O)NCC(=O)OCC(=O)Nc2ncc(Cl)cc2Cl)cc1 as the molecule, how does the Potency read?
A: The Potency was inconclusive: 25.1 µM [inhibitor, single point].

Q: How did the Potency turn out when O=C(NC1CCCC1)C(c1ccncc1)N(Cc1cccs1)C(=O)c1csnn1 (configuration not stated) was run?
A: The Potency was inconclusive: 39.8 µM [inhibitor, partial curve, poor fit].

Q: How did the Potency turn out when O=C(Nc1ccccc1[N+](=O)[O-])C1=C(O)CCn2c1nc1ccccc12 was run?
A: The Potency was inconclusive: 79.4 µM [inhibitor, single point].

Q: For O=C(CN1C(=O)/C(=C/c2ccco2)SC1=S)NC1CCS(=O)(=O)C1 (configuration not stated), which Potency is on record?
A: Its Potency is active: 12.6 µM.

Q: Which Potency does the source give for CCCCN1C(=O)/C(=C/C=C2\Oc3ccccc3N2CC)SC1=S here?
A: The Potency was inconclusive: 22.4 µM [inhibitor, partial curve, poor fit].

Q: For CC(=O)Nc1ccc2c(c1)OCCO2, which Potency is on record?
A: The Potency was “inactive”.

Q: Which Potency does the source give for COc1ccc(OC)c(N(CC(=O)Nc2ccccc2F)S(=O)(=O)c2ccccc2)c1 here?
A: The Potency was inconclusive: 89.1 µM [inhibitor, partial curve, poor fit].

Q: Which Potency does the source give for COc1ccc(-c2csc3ncnc(Nc4ccc(OC)c(OC)c4)c23)cc1 here?
A: Its Potency is inconclusive: 56.2 µM [inhibitor, partial curve, poor fit].

Q: Which Potency does the source give for CCOc1ccc(CCNC(=O)c2ccc(Cn3c(=O)c4cccn4c4cccnc43)cc2)cc1 here?
A: The Potency was inconclusive: 50.1 µM [inhibitor, partial curve].

Q: Nc1nc(SCc2nc3scc(-c4cccs4)c3c(=O)[nH]2)n[nH]1 was tested. Which Potency did it give?
A: Its Potency is inconclusive: 20 µM [inhibitor, partial curve, poor fit].

Q: O=c1oc2c3c4c(cc2c2c1CCC2)OCCN4CCC3 was tested. Which Potency did it give?
A: The Potency was inconclusive: 31.6 µM [inhibitor, partial curve, poor fit].

Q: Which Potency does the source give for CC(C)Nc1nc(NC(C)C)nc(SCCOC(=O)Nc2ccc(Cl)cc2Cl)n1 here?
A: Its Potency is inconclusive: 20 µM [inhibitor, full curve, poor fit].

Q: How did the Potency turn out when O=C(NCCCN1CCOCC1)c1ccc(-n2nc(C(F)(F)F)cc2-c2cccs2)cc1 was run?
A: Its Potency is inconclusive: 3.98 µM [inhibitor, partial curve, poor fit].

Q: For O=C(NCCCO)C(=O)NCC1OCCCN1S(=O)(=O)c1cccs1 (configuration not stated), which Potency is on record?
A: The Potency was inconclusive: 89.1 µM [inhibitor, partial curve, poor fit].

Q: How did the Potency turn out when COc1ccc(CCNc2nc(SCc3ccccc3Cl)nc3ccccc23)cc1OC was run?
A: The Potency was “inactive”.

Q: Oc1ccc(C2CNCCc3c2cc(O)c(O)c3Cl)cc1 (configuration not stated) was tested. Which Potency did it give?
A: Its Potency is inconclusive: 25.1 µM [inhibitor, partial curve].

Q: How did the Potency turn out when Cc1ccc(NC(=O)c2nnn(CC(=O)Nc3ccccc3)c2N)cc1C was run?
A: The Potency was inconclusive: 25.1 µM [inhibitor, partial curve, poor fit].

Q: Which Potency does the source give for O=C(NCC1CCCO1)c1nn2c(C(F)(F)F)cc(-c3cccs3)nc2c1Br (configuration not stated) here?
A: The Potency was “inactive”.

Q: For CCC1(CC(C)C)SC(N)=NC1=O (configuration not stated), which Potency is on record?
A: The Potency was inconclusive: 50.1 µM [inhibitor, partial curve, poor fit].

Q: N#C/C(=C\c1ccc(-c2ccccc2[N+](=O)[O-])o1)C(=O)Nc1nc(-c2cccs2)cs1 was tested. Which Potency did it give?
A: The Potency was inconclusive: 12.6 µM [inhibitor, full curve, poor fit].

Q: Which Potency does the source give for COc1cc(C(=O)NCCOc2ccc(F)cc2)c(Br)c(OC)c1OC here?
A: The Potency was “inactive”.

Q: Which Potency does the source give for CC(=O)Nc1ccc(S(=O)(=O)N2CCN(c3cc(C)ccc3C)CC2)cc1 here?
A: The Potency was inconclusive: 79.4 µM [inhibitor, partial curve, poor fit].

Q: How did the Potency turn out when C(=C\c1ccccc1)/CSc1nnc(-c2cnccn2)n1Cc1ccco1 was run?
A: The Potency was inconclusive: 31.6 µM [inhibitor, single point].

Q: Which Potency does the source give for Cc1oc(-c2ccccc2F)nc1Cn1c(SCc2ccccc2F)nc2ccncc21 here?
A: Its Potency is “inactive”.

Q: How did the Potency turn out when Oc1ccc(C=Nc2ccc(N3CCOCC3)cc2)c(O)c1 was run?
A: Its Potency is active: 14.1 µM.

Q: With CCOC(=O)c1cc2c(=O)n3ccccc3nc2n(Cc2ccco2)c1=NC(=O)c1ccccc1OCC as the molecule, how does the Potency read?
A: The Potency was “inactive”.

Q: COc1ccc2c(c1)[nH]c1c(=O)n(CCc3cnc[nH]3)cnc12 was tested. Which Potency did it give?
A: Its Potency is inconclusive: 35.5 µM [inhibitor, partial curve, poor fit].

Q: For COC(=O)c1cc(C(=O)OC)cc(-n2c(C)cc(C=O)c2C)c1, which Potency is on record?
A: The Potency was “inactive”.

Q: How did the Potency turn out when O=C(O)c1cc(N/N=C/c2ccc3c(c2)OCO3)ccc1Cl was run?
A: Its Potency is “inactive”.

Q: Which Potency does the source give for COc1ccc(S(=O)(=O)NCCSCc2ccco2)cc1OC here?
A: The Potency was inconclusive: 89.1 µM [inhibitor, partial curve].

Q: Which Potency does the source give for COc1cc2[nH]c(=O)n(CCCC(=O)NCc3ccccc3Cl)c(=O)c2cc1OC here?
A: The Potency was “inactive”.

Q: Which Potency does the source give for CCc1ccc[n+](-c2[nH]c(=O)sc2/C=N/NC([S-])=Nc2ccccc2)c1 here?
A: The Potency was inconclusive: 39.8 µM [inhibitor, single point].

Q: CN(C)C1C(=O)C(C(N)=O)=C(O)[C@@]2(O)C(=O)C3=C(O)c4c(O)ccc(Cl)c4[C@@H](O)C3C[C@@H]12 (some centres not stated) was tested. Which Potency did it give?
A: The Potency was inconclusive: 39.8 µM [inhibitor, single point].

Q: With CC#CC#Cc1cccc(=O)o1 as the molecule, how does the Potency read?
A: Its Potency is inconclusive: 20 µM [inhibitor, full curve].

Q: For O=C1c2ccccc2C(=O)c2[nH]c(=O)[nH]c21, which Potency is on record?
A: The Potency was active: 31.6 µM.

Q: Which Potency does the source give for O=C(CSc1nc(-c2ccco2)nc2cc(=O)[nH]n12)Nc1ccccc1Cl here?
A: Its Potency is “inactive”.

Q: COc1cc(NC(=O)c2cccc(Cl)c2)c(OC)cc1NC(=O)CN1CCCCC1 was tested. Which Potency did it give?
A: The Potency was inconclusive: 79.4 µM [inhibitor, partial curve, poor fit].

Q: How did the Potency turn out when O=C(/C=C/c1ccco1)Nc1cc(Cl)ccc1C(=O)O was run?
A: The Potency was active: 10 µM.

Q: CN(C)c1ccc(CNc2nc(-c3ccco3)nn2S(=O)(=O)c2ccc(Cl)cc2)cc1 was tested. Which Potency did it give?
A: Its Potency is “inactive”.

Q: O=C1OC(c2ccc(O)cc2)(c2ccc(O)cc2)c2ccccc21 was tested. Which Potency did it give?
A: Its Potency is “inactive”.

Q: CCOc1ccc(NC(=O)c2ccc(NC(=O)c3ccc(NC(N)=O)cc3)cc2)cc1 was tested. Which Potency did it give?
A: The Potency was inconclusive: 22.4 µM [inhibitor, full curve].

Q: Which Potency does the source give for Cc1ccc(-n2c(=O)c3cccnc3n2CC(=O)Nc2ccc(Br)cc2)cc1C here?
A: The Potency was “inactive”.

Q: Which Potency does the source give for CCC1CCCCN1Cc1ccc(CNS(=O)(=O)c2ccc3c(c2)oc(=O)n3C)o1 (configuration not stated) here?
A: The Potency was inconclusive: 25.1 µM [inhibitor, partial curve, poor fit].

Q: Which Potency does the source give for Cc1cc(=O)oc2cc(OCC(=O)N3CCCC3)ccc12 here?
A: The Potency was “inactive”.

Q: How did the Potency turn out when Cc1cc2nc(-c3ccc(SCC(=O)N4CCN(C(=O)c5ccco5)CC4)nc3)[nH]c2cc1C was run?
A: Its Potency is active: 79.4 µM.

Q: For Cc1ccc(CNC(=O)C(=O)NCC2CCCN2S(=O)(=O)c2cccs2)cc1 (configuration not stated), which Potency is on record?
A: The Potency was “inactive”.

Q: CCCCOc1ccc(C(=O)Oc2cc(C)[nH]c(=O)c2[N+](=O)[O-])cc1 was tested. Which Potency did it give?
A: Its Potency is “inactive”.

Q: For COc1ccc(NC(=O)/C(Cl)=C(/Cl)S(=O)(=O)Cc2ccccc2)cn1, which Potency is on record?
A: The Potency was inconclusive: 14.1 µM [inhibitor, full curve, poor fit].

Q: Which Potency does the source give for CC1(C)CC(=O)C2=C(C1)Nc1ccccc1NC2c1ccc([N+](=O)[O-])cc1 (configuration not stated) here?
A: Its Potency is “inactive”.

Q: How did the Potency turn out when O=C(Nc1ccnn1C1CCN(CC2CC=CCC2)CC1)c1ccccc1Cl (configuration not stated) was run?
A: Its Potency is inconclusive: 28.2 µM [inhibitor, partial curve, poor fit].

Q: For NC1=C(Br)C(=O)c2ncccc2C1=O, which Potency is on record?
A: Its Potency is active: 17.8 µM.

Q: COc1ccc(/C=N/N=C2/NC(=O)C(CC(=O)O)S2)cc1OCc1ccccc1Cl (configuration not stated) was tested. Which Potency did it give?
A: Its Potency is inconclusive: 17.8 µM [inhibitor, full curve].

Q: How did the Potency turn out when CCNc1ccc(Br)cc(C(=O)/C=C/c2ccccc2Cl)c1=O was run?
A: Its Potency is active: 79.4 µM.

Q: For COc1ccc(C)cc1NC(=O)CCS(=O)(=O)c1cc2c3c(c1)CCN3C(=O)CC2, which Potency is on record?
A: The Potency was “inactive”.

Q: For CC1S/C(=C(\C#N)C(=O)NCc2ccco2)N(Cc2ccco2)C1=O (configuration not stated), which Potency is on record?
A: The Potency was inconclusive: 15.8 µM [inhibitor, full curve, poor fit].

Q: How did the Potency turn out when COc1ccccc1OCc1ccc(C(=O)NC(C)(C)C)o1 was run?
A: The Potency was inconclusive: 25.1 µM [inhibitor, single point].

Q: With COC(=O)c1ccc(COc2ccc3c4c(c(=O)oc3c2)CCC4)o1 as the molecule, how does the Potency read?
A: Its Potency is inconclusive: 22.4 µM [inhibitor, single point].

Q: For O=C(N/N=C/c1ccc(O)c(O)c1)c1cc(-c2ccccc2)nc2ccccc12, which Potency is on record?
A: The Potency was inconclusive: 39.8 µM [inhibitor, partial curve, poor fit].

Q: N#Cc1c(-c2ccco2)c2c([nH]c1=S)CCCC2 was tested. Which Potency did it give?
A: The Potency was inconclusive: 14.1 µM [inhibitor, full curve, poor fit].

Q: With O=C(O)c1cccc(S(=O)(=O)Nc2ccc(O)c(Sc3nc4ccccc4s3)c2)c1 as the molecule, how does the Potency read?
A: Its Potency is inconclusive: 79.4 µM [inhibitor, partial curve, poor fit].

Q: Which Potency does the source give for N#C/C(=C/c1ccc(-c2ccc(S(N)(=O)=O)cc2)o1)c1nc2ccccc2s1 here?
A: Its Potency is inconclusive: 20 µM [inhibitor, partial curve, poor fit].

Q: For COc1ccc(-c2ccc(SCC(=O)Nc3cccc(C(C)=O)c3)nn2)cc1OC, which Potency is on record?
A: The Potency was inconclusive: 17.8 µM [inhibitor, partial curve, poor fit].

Q: How did the Potency turn out when CCCCc1ccc(NC(=S)Nc2ccc(Nc3ccc(OC)cc3)cc2)cc1 was run?
A: Its Potency is inconclusive: 79.4 µM [inhibitor, partial curve, poor fit].

Q: For O=C(c1ccc2c(c1)N(Cc1cccc(F)c1)C(=O)c1ccccc1S2)N1CCOCC1, which Potency is on record?
A: The Potency was inconclusive: 89.1 µM [inhibitor, single point].

Q: Which Potency does the source give for Cc1cccc(-n2c(O)c(C=Nc3cc(O)ccc3C)c3ccccc3c2=O)n1 here?
A: The Potency was inconclusive: 100 µM [inhibitor, partial curve, poor fit].
